According to PubChem BioAssay AID1346428 (National Center for Advancing Translational Sciences (NCATS), 2018):
In all, about 48,000 compounds went through this assay and about 1,200 (2.5%) were called active. Roughly 2% stayed inconclusive and do not appear here.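 The calls were made as follows: active = activation of at least 60% and not above a set upper limit (about 1 call in 100 departs from these limits); inconclusive = activation of 40% to 60%, or above that upper limit; inactive = activation under 40%.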 This is one part of the list.

biological target: Probable G-protein coupled receptor 32 (Homo sapiens) (UniProt O75388); test: qHTS for Agonists of Human Resolvin D1 Receptor DRV1; conditions: CHO-K1 GPR32 beta-arrestin PathHunter luminescence, 90 min; at 76.9 µM; active compounds read high; zero percent set by DMSO-only wells; also: 0% is about no effect
UniProt O75388, sequence (O75388 whole entry, looked up, the tested form may be a part): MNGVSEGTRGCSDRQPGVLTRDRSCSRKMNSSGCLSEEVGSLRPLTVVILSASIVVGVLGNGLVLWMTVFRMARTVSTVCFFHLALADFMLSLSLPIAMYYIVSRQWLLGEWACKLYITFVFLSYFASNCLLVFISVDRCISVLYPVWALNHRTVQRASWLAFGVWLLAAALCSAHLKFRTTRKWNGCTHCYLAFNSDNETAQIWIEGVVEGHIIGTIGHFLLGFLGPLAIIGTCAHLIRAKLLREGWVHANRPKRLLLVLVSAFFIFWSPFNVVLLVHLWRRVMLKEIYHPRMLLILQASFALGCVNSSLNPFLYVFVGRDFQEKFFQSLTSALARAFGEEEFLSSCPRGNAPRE
Summary of the method: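 GPR32 activation in stably transfected CHO-K1 cells, detected as beta-arrestin recruitment by enzyme-fragment complementation. Compound exposure: 90 min, 37 °C.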

**Q.** Which activation does the source give for O=C(NCCCN1CCN(c2ccccc2F)CC1)c1ccc2nc(N3CCCCC3)sc2c1 here?
**A.** The activation was inactive: 1.5%.

**Q.** Which activation does the source give for O=C(Nc1ccc(C(F)(F)F)cc1)C(Cc1ccccc1)n1cccc1 (stereo not given) here?
**A.** Its activation is inactive: -7.26%.

**Q.** How did the activation turn out when CC(=O)Nc1cccc(C(=O)NCc2ccc3c(c2)CCN3C(=O)c2ccc(F)cc2)c1 was run?
**A.** The activation was inactive: -27.2%.

**Q.** COc1cccc(NS(=O)(=O)c2ccc3[nH]cc(C(=O)N4CCCC4)c(=O)c3c2)c1 was tested. Which activation did it give?
**A.** Its activation is inactive: -3.92%.

**Q.** Which activation does the source give for Cc1c(CCNC(=O)C(C)(C)C)sc2nc(-c3ccc(F)cc3)nn12 here?
**A.** Its activation is inactive: -8.75%.

**Q.** With CCN(C(=O)C1CCCN(c2ncnc3c2nc2n3CCCCC2)C1)c1cccc(Cl)c1 (stereo not given) as the compound, how does the activation read?
**A.** Its activation is inactive: -11.1%.

**Q.** How did the activation turn out when Cc1cc2c(cc3c(SCc4ccccc4Cl)nnc(C)n32)o1 was run?
**A.** Its activation is inactive: -18.9%.

**Q.** With COc1ccccc1NC(=O)C1=C(C)Nc2nc(SCc3ccccc3)nn2C1c1ccncc1 (stereo not given) as the compound, how does the activation read?
**A.** The activation was inactive: 26%.

**Q.** CC(=O)c1ccc(NC(=O)COCc2cc(-c3ccc(F)cc3)on2)cc1 was tested. Which activation did it give?
**A.** The activation was inactive: -1.55%.

**Q.** How did the activation turn out when COc1cc(OC)c(N(C)C(=O)c2sc3nc4n(c(=O)c3c2C)CCCCC4)cc1Cl was run?
**A.** The activation was inactive: -8.38%.

**Q.** For COc1cc(NC(=O)Cn2nc3c(cc2=O)CC(C)CC3)cc(OC)c1OC (stereo not given), which activation is on record?
**A.** Its activation is inactive: -8.13%.

**Q.** Which activation does the source give for Cc1cc(Nc2cc(F)ccc2C)nc(-n2nc(C)cc2C)n1 here?
**A.** Its activation is inactive: -27.3%.

**Q.** CCn1cc(C(=O)N2CCN(c3ccc(OC)cc3)CC2)c(=O)c2cc(S(=O)(=O)N3CCOCC3)ccc21 was tested. Which activation did it give?
**A.** The activation was inactive: -21.2%.

**Q.** How did the activation turn out when Cc1c(C(=O)N2CCC(C)CC2)c(S(=O)(=O)Nc2ccc(OC(F)(F)F)cc2)c(C)n1C was run?
**A.** Its activation is inactive: -15.3%.

**Q.** For CC(C)N(Cc1ccccc1)C(=O)CN1C(=O)CSc2ccc(S(=O)(=O)N3CCCC3)cc21, which activation is on record?
**A.** Its activation is inactive: -30.7%.

**Q.** How did the activation turn out when CN(C)S(=O)(=O)N(CC(=O)NCCSc1ccccc1)c1ccccc1 was run?
**A.** The activation was inactive: 1.6%.

**Q.** How did the activation turn out when COc1ccc(OCC(=O)Nc2ccc(-c3nc4cc(C)c(C)cc4o3)cc2)cc1 was run?
**A.** The activation was inactive: -5.42%.

**Q.** COc1ccc2[nH]cc(CCN=C(NC(=O)c3ccccc3C)Nc3nc(C)cc(C)n3)c2c1 was tested. Which activation did it give?
**A.** The activation was inactive: 1.85%.

**Q.** For CCSc1nc2c([nH]c3ccccc32)c(=O)n1-c1ccc(F)cc1, which activation is on record?
**A.** Its activation is active: 78.8%.

**Q.** With Cc1cc(C)c2c(n1)sc1c(=O)n(-c3ccccc3C(F)(F)F)nnc12 as the compound, how does the activation read?
**A.** The activation was inactive: -4.88%.

**Q.** With CCc1ccc(CNC(=O)C2CCCN(S(=O)(=O)c3ccc4c(ccn4C)c3)C2)cc1 (stereo not given) as the compound, how does the activation read?
**A.** Its activation is inactive: 11.1%.

**Q.** With CCCCOc1ccc(CNC(=O)c2ccc3c(c2)N(C)C(=O)C2CCCCN32)cc1 (stereo not given) as the compound, how does the activation read?
**A.** The activation was inactive: 1.74%.

**Q.** With CCC(=O)N1CCc2cc(CNS(=O)(=O)c3cccs3)ccc21 as the compound, how does the activation read?
**A.** The activation was inactive: -7.77%.

**Q.** For CCOC(=O)C(CC)Sc1c(CC)cnc2c1c(=O)n(C)c(=O)n2C (stereo not given), which activation is on record?
**A.** Its activation is inactive: -18.5%.

**Q.** For Cc1ccc(OCCSc2nc3ccc(NC(=O)c4ccc(F)cc4)cc3s2)cc1, which activation is on record?
**A.** Its activation is inactive: -2.82%.

**Q.** For Nc1c2ccccc2nc2ccccc12, which activation is on record?
**A.** The activation was inactive: -9.15%.

**Q.** Which activation does the source give for Cc1cccc(C(C)C)c1NC(=O)C(NS(=O)(=O)c1cccc2nsnc12)c1ccccc1 (stereo not given) here?
**A.** The activation was inactive: -61.4%.

**Q.** COc1ccc(-c2c(C)c3ccc(O)c(CN4CCCC4)c3oc2=O)cc1OC was tested. Which activation did it give?
**A.** The activation was inactive: -5.21%.

**Q.** Which activation does the source give for Cc1ccc(Cc2cn3cc(-c4ccc(F)cc4)nc3s2)cc1 here?
**A.** Its activation is inactive: 17.8%.

**Q.** COc1cccc(-c2cn3ncsc3n2)c1 was tested. Which activation did it give?
**A.** Its activation is inactive: 1.76%.

**Q.** For COc1ccc(OCc2nc(-c3ccc(-n4cccc4)cc3)no2)cc1, which activation is on record?
**A.** Its activation is active: 117%.

**Q.** With CN1CCC(=C2c3ccccc3Sc3ccccc32)CC1 as the compound, how does the activation read?
**A.** Its activation is inactive: 8.46%.

**Q.** With Cc1ccccc1CSc1ccc(-c2cccs2)nn1 as the compound, how does the activation read?
**A.** Its activation is inactive: -31%.

**Q.** Which activation does the source give for Cc1ccc(NC(=O)Cn2cc(C(=O)C3CC3)c3ccccc32)cc1C here?
**A.** Its activation is inactive: 3.61%.

**Q.** Which activation does the source give for Cc1cc(C)n(-c2nc(C)c(C)c(=O)n2CC(=O)Nc2ccc(OC(F)(F)F)cc2)n1 here?
**A.** Its activation is inactive: -10.9%.

**Q.** Which activation does the source give for Cc1cccc(NC(=O)c2cc(S(=O)(=O)N3CCCCCC3)cn2C)c1C here?
**A.** Its activation is inactive: -8.48%.

**Q.** Cc1ccc(CNS(=O)(=O)c2cc3c(cc2Cl)NC(=O)CO3)o1 was tested. Which activation did it give?
**A.** Its activation is inactive: -7.93%.

**Q.** With CC1CCC(C(=O)NC(C(=O)OCC(=O)c2ccc(Br)cc2)C(C)C)CC1 (stereo not given) as the compound, how does the activation read?
**A.** Its activation is inactive: 26.5%.

**Q.** For Cc1ccc(S(=O)(=O)c2cn(CC(=O)Nc3cccc(C)c3)c3cc4c(cc3c2=O)OCO4)cc1, which activation is on record?
**A.** Its activation is inactive: -7.31%.

**Q.** For CNS(=O)(=O)c1cn(CC(=O)Nc2ccc(OC)cc2OC)cc1S(=O)(=O)NC, which activation is on record?
**A.** Its activation is inactive: -4.52%.

**Q.** CCC(CC)C(=O)Nc1cc(-c2ccccc2F)nn1-c1ccccc1 was tested. Which activation did it give?
**A.** Its activation is inactive: -18.1%.

**Q.** Cc1ccc(/C=C/c2onc(C)c2S(=O)(=O)N2CCC(C(=O)Nc3ccc(Br)c(C)c3)CC2)cc1 was tested. Which activation did it give?
**A.** The activation was inactive: -7.75%.

**Q.** For Cc1csc2nc(-c3ccc(NS(=O)(=O)c4cc(F)ccc4F)cc3)cn12, which activation is on record?
**A.** Its activation is inactive: 0.0851%.

**Q.** Which activation does the source give for Cc1ccccc1/C=C(\C#N)c1nc(-c2ccc(Cl)cc2)cs1 here?
**A.** The activation was inactive: 1.54%.

**Q.** Which activation does the source give for CCN(CC)C(=O)Cn1c(=O)n(-c2ccccc2)c(=O)c2c3c(sc21)CCC3 here?
**A.** Its activation is inactive: -0.418%.

**Q.** For COc1ccccc1C(=O)Nc1ccc(C(=O)OCc2cc(=O)n3nc(C)sc3n2)cc1, which activation is on record?
**A.** Its activation is inactive: -4.58%.

**Q.** CN(C(=O)c1ccc2c(Cl)c3c(nc2c1)CCC3)c1ccccc1F was tested. Which activation did it give?
**A.** Its activation is inactive: -3.98%.

**Q.** For COc1ccc(CCN2C(=O)CN(C3CCCCCC3)C(=O)C2c2ccc(OC(C)C)c(OC)c2)cc1OC (stereo not given), which activation is on record?
**A.** The activation was inactive: -17.2%.

**Q.** How did the activation turn out when Cc1ccc(CNC(=O)c2nnc(Cc3ccc(Cl)cc3)o2)cc1 was run?
**A.** Its activation is inactive: 4.51%.

**Q.** For Cc1ccc(NC(=O)Cn2c(-c3cncs3)nc3ccccc32)c(Br)c1, which activation is on record?
**A.** Its activation is inactive: -4.17%.

**Q.** How did the activation turn out when Cc1ccc(CNC(=O)CN2C(=O)C3(SCC(=O)N3c3ccc(F)cc3)c3ccccc32)cc1 (stereo not given) was run?
**A.** The activation was inactive: 3.79%.

**Q.** With Cc1c(Cl)cccc1Nc1nc2ccc(C(=O)c3ccccc3)cc2n2cnnc12 as the compound, how does the activation read?
**A.** Its activation is inactive: -23.3%.

**Q.** For CC1CN(C(=O)N2CCC(C(=O)NCCCc3ccccc3)CC2)c2ccccc2O1 (stereo not given), which activation is on record?
**A.** Its activation is inactive: -6.2%.

**Q.** With CC(=O)N1CCc2c(sc3c2c(=O)n(Cc2ccccc2)c(=O)n3Cc2cc(C)ccc2C)C1 as the compound, how does the activation read?
**A.** The activation was inactive: -1.31%.

**Q.** With COc1ccc2c(c1)Cc1sc(NC(=O)c3cccc(Br)c3)nc1-2 as the compound, how does the activation read?
**A.** Its activation is inactive: -19%.
